Measured values taken from the supplement of paper PMC10037445.
In all, about 2,900 compounds were measured (“NF-kB SEAP reporter activity, fold change vs agonist alone”: median about 0.99, highest 2% from about 2.6 on). Some of the results follow.

Tests used:
RAW-Dual [1] = assay: NF-kB SEAP reporter activity, fold change vs agonist alone; cytotoxicity flag (confluency mask): cytotoxic (confluency <70% of control); higher = enhanced NF-kB activity
Method in brief: (§1)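 RAW-Dual macrophages were seeded in DMEM at 50,000 cells/well in 384-well plates, given 50 nL of library stock by pin tool, and given a PRR agonist 1 h later. Plates were held at 37 °C, 5% CO2 for 20 hours, after which supernatant was read for IRF by QuantiLuc luminescence and for NF-κB by QuantiBlue absorbance at 620 nm. Reporter activity is expressed as fold change over wells that received agonist alone. A well was called cytotoxic when IncuCyte confluency fell below 70% of agonist controls in both mask sets.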

RAW-Dual [2] = assay: NF-kB SEAP reporter activity, fold change vs agonist alone; higher = enhanced NF-kB activity
Method in brief: as §1

RAW-Dual [3] = assay: NF-kB SEAP reporter activity, fold change vs agonist alone; cytotoxicity flag (confluency mask): not cytotoxic; higher = enhanced NF-kB activity
Method in brief: as §1

[4] = agonist: ODN 1826 (TLR9) 0.5 ug/mL
[5] = agonist: Pam2CSK4 (TLR2/6) 0.1 ug/mL
[6] = agonist: Pam3CSK4 (TLR2/1) 0.1 ug/mL
[7] = library stock concentration (final ~1000-fold dilution): 10 mM, cytotoxicity flag (confluency mask): cytotoxic (confluency <70% of control), agonist: Imiquimod (TLR7) […]
[8] = library stock concentration (final ~1000-fold dilution): 10 mM, cytotoxicity flag (confluency mask): cytotoxic (confluency <70% of control), agonist: MPLA (TLR4) […]
[9] = library stock concentration (final ~1000-fold dilution): 10 mM, cytotoxicity flag (confluency mask): not cytotoxic, agonist: Imiquimod (TLR7) […]
[10] = library stock concentration (final ~1000-fold dilution): 10 mM, cytotoxicity flag (confluency mask): not cytotoxic, agonist: MPLA (TLR4) […]
[11] = library stock concentration (final ~1000-fold dilution): 10 mM water, cytotoxicity flag (confluency mask): not cytotoxic, agonist: Imiquimod (TLR7) […]
[12] = library stock concentration (final ~1000-fold dilution): 10 mM water, cytotoxicity flag (confluency mask): not cytotoxic, agonist: MPLA (TLR4) […]

COc1ccc2cc1Oc1ccc(cc1)CC1c3c(cc4c(c3Oc3cc5c(cc3OC)CCN(C)C5C2)OCO4)CCN1C (stereo not given) (library stock concentration (final ~1000-fold dilution): 10 mM)
NF-kB SEAP reporter activity (RAW-Dual [1]; agonist: LPS (TLR4) 0.1 ug/mL): 1.44 | NF-kB SEAP reporter activity (RAW-Dual [1]; [4]): 0.251 | NF-kB SEAP reporter activity (RAW-Dual [1]; [5]): 1.42 | NF-kB SEAP reporter activity (RAW-Dual [1]; [6]): 1.01

CC(=O)c1ccc2c(c1)c1cc(C(C)=O)ccc1n2CCNC(C)C.Cl
NF-kB SEAP reporter activity (RAW-Dual [2]; [7]): 0.156 | NF-kB SEAP reporter activity (RAW-Dual [2]; [8]): 0.26

CC(=O)c1ccc2c(c1)c1cc(C(C)=O)ccc1n2CCNC(C)C.Cl (library stock concentration (final ~1000-fold dilution): 10 mM)
NF-kB SEAP reporter activity (RAW-Dual [1]; agonist: LPS (TLR4) 0.1 ug/mL): 0.329 | NF-kB SEAP reporter activity (RAW-Dual [1]; [4]): 0.209 | NF-kB SEAP reporter activity (RAW-Dual [1]; [5]): 0.0686 | NF-kB SEAP reporter activity (RAW-Dual [1]; [6]): 0.155

CCCCCCCCCCCC1=C(O)C(=O)C=C(O)C1=O (library stock concentration (final ~1000-fold dilution): 10 mM)
NF-kB SEAP reporter activity (RAW-Dual [1]; agonist: LPS (TLR4) 0.1 ug/mL): 0.65 | NF-kB SEAP reporter activity (RAW-Dual [1]; [4]): 0.374 | NF-kB SEAP reporter activity (RAW-Dual [1]; [5]): 0.232 | NF-kB SEAP reporter activity (RAW-Dual [1]; [6]): 0.25

CCCCCCCCCCCC1=C(O)C(=O)C=C(O)C1=O
NF-kB SEAP reporter activity (RAW-Dual [2]; [7]): 1.1 | NF-kB SEAP reporter activity (RAW-Dual [2]; [8]): 0.79

CC(NC(=O)c1ncnc(N)c1Cl)c1ncc(C(=O)Nc2cc(C(F)(F)F)c(Cl)cn2)s1 (stereo not given) (library stock concentration (final ~1000-fold dilution): 10 mM)
NF-kB SEAP reporter activity (RAW-Dual [3]; agonist: LPS (TLR4) 0.1 ug/mL): 0.632 | NF-kB SEAP reporter activity (RAW-Dual [3]; [4]): 0.495 | NF-kB SEAP reporter activity (RAW-Dual [3]; [5]): 0.383 | NF-kB SEAP reporter activity (RAW-Dual [3]; [6]): 0.417

CC(NC(=O)c1ncnc(N)c1Cl)c1ncc(C(=O)Nc2cc(C(F)(F)F)c(Cl)cn2)s1 (stereo not given)
NF-kB SEAP reporter activity (RAW-Dual [2]; [9]): 0.623 | NF-kB SEAP reporter activity (RAW-Dual [2]; [10]): 0.876

CCC1OC(=O)C(C)C(OC2CC(C)(OC)C(O)C(C)O2)C(C)C(OC2OC(C)CC(N(C)C)C2O)C(C)(O)CC(C)C(=O)C(C)C(O)C1(C)O.N#CS (stereo not given)
NF-kB SEAP reporter activity (RAW-Dual [2]; [10]): 1.07

CCC1OC(=O)C(C)C(OC2CC(C)(OC)C(O)C(C)O2)C(C)C(OC2OC(C)CC(N(C)C)C2O)C(C)(O)CC(C)C(=O)C(C)C(O)C1(C)O.N#CS (stereo not given) (library stock concentration (final ~1000-fold dilution): 10 mM)
NF-kB SEAP reporter activity (RAW-Dual [3]; agonist: LPS (TLR4) 0.1 ug/mL): 1.06 | NF-kB SEAP reporter activity (RAW-Dual [3]; [4]): 0.88 | NF-kB SEAP reporter activity (RAW-Dual [3]; [5]): 1.07 | NF-kB SEAP reporter activity (RAW-Dual [3]; [6]): 1.08

N#CC1CC2CC2N1C(=O)C(N)C12CC3CC(CC(O)(C3)C1)C2 (stereo not given)
NF-kB SEAP reporter activity (RAW-Dual [2]; [9]): 0.914 | NF-kB SEAP reporter activity (RAW-Dual [2]; [10]): 0.875

N#CC1CC2CC2N1C(=O)C(N)C12CC3CC(CC(O)(C3)C1)C2 (stereo not given) (library stock concentration (final ~1000-fold dilution): 10 mM)
NF-kB SEAP reporter activity (RAW-Dual [3]; agonist: LPS (TLR4) 0.1 ug/mL): 1.1 | NF-kB SEAP reporter activity (RAW-Dual [3]; [4]): 0.964 | NF-kB SEAP reporter activity (RAW-Dual [3]; [5]): 0.892 | NF-kB SEAP reporter activity (RAW-Dual [3]; [6]): 1.05

O=C(O)CNC(=O)c1nc(Cl)c2ccccc2c1O (library stock concentration (final ~1000-fold dilution): 10 mM)
NF-kB SEAP reporter activity (RAW-Dual [3]; agonist: LPS (TLR4) 0.1 ug/mL): 0.889 | NF-kB SEAP reporter activity (RAW-Dual [3]; [4]): 0.952 | NF-kB SEAP reporter activity (RAW-Dual [3]; [5]): 0.873 | NF-kB SEAP reporter activity (RAW-Dual [3]; [6]): 1.04

O=C(O)CNC(=O)c1nc(Cl)c2ccccc2c1O
NF-kB SEAP reporter activity (RAW-Dual [2]; [9]): 1.01 | NF-kB SEAP reporter activity (RAW-Dual [2]; [10]): 0.966

CCOCc1nc2c(N)nc3ccccc3c2n1CC(C)(C)O (library stock concentration (final ~1000-fold dilution): 3.2 mM)
NF-kB SEAP reporter activity (RAW-Dual [3]; agonist: LPS (TLR4) 0.1 ug/mL): 3.55 | NF-kB SEAP reporter activity (RAW-Dual [3]; [4]): 1.69 | NF-kB SEAP reporter activity (RAW-Dual [3]; [5]): 0.415 | NF-kB SEAP reporter activity (RAW-Dual [3]; [6]): 0.673

CCOCc1nc2c(N)nc3ccccc3c2n1CC(C)(C)O
NF-kB SEAP reporter activity (RAW-Dual [2]; library stock concentration (final ~1000-fold dilution): 3.2 mM, cytotoxicity flag (confluency mask): not cytotoxic, agonist: Imiquimod (TLR7) […]): 1.27 | NF-kB SEAP reporter activity (RAW-Dual [2]; library stock concentration (final ~1000-fold dilution): 3.2 mM, cytotoxicity flag (confluency mask): not cytotoxic, agonist: MPLA (TLR4) […]): 2.17

CSCCNc1nc(SCCC(F)(F)F)nc2c1ncn2C1OC(COP(=O)(O)OP(=O)(O)C(Cl)(Cl)P(=O)(O)O)C(O)C1O (stereo not given)
NF-kB SEAP reporter activity (RAW-Dual [2]; [11]): 0.972 | NF-kB SEAP reporter activity (RAW-Dual [2]; [12]): 1.04

CSCCNc1nc(SCCC(F)(F)F)nc2c1ncn2C1OC(COP(=O)(O)OP(=O)(O)C(Cl)(Cl)P(=O)(O)O)C(O)C1O (stereo not given) (library stock concentration (final ~1000-fold dilution): 10 mM water)
NF-kB SEAP reporter activity (RAW-Dual [3]; agonist: LPS (TLR4) 0.1 ug/mL): 1.15 | NF-kB SEAP reporter activity (RAW-Dual [3]; [4]): 1.26 | NF-kB SEAP reporter activity (RAW-Dual [3]; [5]): 1.18 | NF-kB SEAP reporter activity (RAW-Dual [3]; [6]): 0.935

Cn1cc(-c2ccc(S(=O)(=O)n3ccc(/C=C/C(=O)Nc4ccccc4N)c3)cc2)cn1
NF-kB SEAP reporter activity (RAW-Dual [2]; [7]): 1.68 | NF-kB SEAP reporter activity (RAW-Dual [2]; [8]): 2.37

Cn1cc(-c2ccc(S(=O)(=O)n3ccc(/C=C/C(=O)Nc4ccccc4N)c3)cc2)cn1 (library stock concentration (final ~1000-fold dilution): 10 mM)
NF-kB SEAP reporter activity (RAW-Dual [1]; agonist: LPS (TLR4) 0.1 ug/mL): 4.11 | NF-kB SEAP reporter activity (RAW-Dual [1]; [4]): 3.13 | NF-kB SEAP reporter activity (RAW-Dual [1]; [5]): 1.14 | NF-kB SEAP reporter activity (RAW-Dual [1]; [6]): 2.27

CCc1oc2ccccc2c1C(=O)c1cc(Br)c(O)c(Br)c1
NF-kB SEAP reporter activity (RAW-Dual [2]; [9]): 0.997 | NF-kB SEAP reporter activity (RAW-Dual [2]; [10]): 1.19

CCc1oc2ccccc2c1C(=O)c1cc(Br)c(O)c(Br)c1 (library stock concentration (final ~1000-fold dilution): 10 mM)
NF-kB SEAP reporter activity (RAW-Dual [3]; agonist: LPS (TLR4) 0.1 ug/mL): 1.11 | NF-kB SEAP reporter activity (RAW-Dual [3]; [4]): 0.953 | NF-kB SEAP reporter activity (RAW-Dual [3]; [5]): 0.961 | NF-kB SEAP reporter activity (RAW-Dual [3]; [6]): 1.12

COC1OC(COS(=O)(=O)O)C(OC2OC(C(=O)O)C(OC3OC(COS(=O)(=O)O)C(OC4OC(C(=O)O)C(OC5OC(COS(=O)(=O)O)C(O)C(O)C5NS(=O)(=O)O)C(O)C4O)C(OS(=O)(=O)O)C3NS(=O)(=O)O)C(O)C2OS(=O)(=O)O)C(O)C1NS(=O)(=O)O (stereo not given) (library stock concentration (final ~1000-fold dilution): 10 mM water)
NF-kB SEAP reporter activity (RAW-Dual [3]; agonist: LPS (TLR4) 0.1 ug/mL): 1.06 | NF-kB SEAP reporter activity (RAW-Dual [3]; [4]): 1.3 | NF-kB SEAP reporter activity (RAW-Dual [3]; [5]): 1.25 | NF-kB SEAP reporter activity (RAW-Dual [3]; [6]): 1.04

COC1OC(COS(=O)(=O)O)C(OC2OC(C(=O)O)C(OC3OC(COS(=O)(=O)O)C(OC4OC(C(=O)O)C(OC5OC(COS(=O)(=O)O)C(O)C(O)C5NS(=O)(=O)O)C(O)C4O)C(OS(=O)(=O)O)C3NS(=O)(=O)O)C(O)C2OS(=O)(=O)O)C(O)C1NS(=O)(=O)O (stereo not given)
NF-kB SEAP reporter activity (RAW-Dual [2]; [11]): 1.04 | NF-kB SEAP reporter activity (RAW-Dual [2]; [12]): 1.06

Cc1ccccc1N=Nc1ccc(NC(=O)c2ccnn2C)c(C)c1
NF-kB SEAP reporter activity (RAW-Dual [2]; [9]): 0.467 | NF-kB SEAP reporter activity (RAW-Dual [2]; [10]): 1.1

Cc1ccccc1N=Nc1ccc(NC(=O)c2ccnn2C)c(C)c1 (library stock concentration (final ~1000-fold dilution): 10 mM)
NF-kB SEAP reporter activity (RAW-Dual [3]; agonist: LPS (TLR4) 0.1 ug/mL): 1.07 | NF-kB SEAP reporter activity (RAW-Dual [3]; [4]): 0.913 | NF-kB SEAP reporter activity (RAW-Dual [3]; [5]): 0.908 | NF-kB SEAP reporter activity (RAW-Dual [3]; [6]): 0.949
